Experimental data as given in the supplement of paper PMC3334620.
Over roughly 33,000 sequences, “E-score (-0.5 to 0.5)” has its median near -0.054; the highest 2% begin near 0.35. Some of the results follow.

target: T1, Stb5 (UniProt P38699); assay: PBM E-score (8-mer binding enrichment) (E-score (-0.5 to 0.5)); higher = stronger / more preferred TF binding; most listed sequences are background and not binding sites; settings: protein concentration: 200 nM; construct: GST-full length
T1 sequence: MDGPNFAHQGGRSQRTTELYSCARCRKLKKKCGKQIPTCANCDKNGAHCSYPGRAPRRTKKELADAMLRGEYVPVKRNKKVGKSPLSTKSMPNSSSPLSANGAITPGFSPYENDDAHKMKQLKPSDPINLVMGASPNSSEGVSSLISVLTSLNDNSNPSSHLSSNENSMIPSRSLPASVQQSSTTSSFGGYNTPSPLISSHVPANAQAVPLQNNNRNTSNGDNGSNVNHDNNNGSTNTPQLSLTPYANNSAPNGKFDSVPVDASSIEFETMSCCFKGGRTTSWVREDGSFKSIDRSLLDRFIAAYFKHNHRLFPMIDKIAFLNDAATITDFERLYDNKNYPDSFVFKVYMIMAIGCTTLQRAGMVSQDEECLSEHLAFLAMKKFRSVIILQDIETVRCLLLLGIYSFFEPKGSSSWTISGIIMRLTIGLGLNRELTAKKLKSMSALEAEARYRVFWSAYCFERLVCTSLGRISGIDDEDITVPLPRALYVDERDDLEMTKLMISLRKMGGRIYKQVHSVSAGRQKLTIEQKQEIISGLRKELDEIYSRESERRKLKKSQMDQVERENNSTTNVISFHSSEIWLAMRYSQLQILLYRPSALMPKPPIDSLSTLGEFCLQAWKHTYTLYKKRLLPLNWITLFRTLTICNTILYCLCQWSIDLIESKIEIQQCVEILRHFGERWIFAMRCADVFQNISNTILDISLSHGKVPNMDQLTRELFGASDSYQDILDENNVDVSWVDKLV
How it was run: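 Detection of bound protein used fluorescent anti-GST, with scans normalised by masliner. The proteins were GST-tagged yeast transcription factors applied at about 100-200 nM to universal all-10-mer Agilent arrays made double-stranded by primer extension. Each ungapped eight-base word, pooled with its reverse complement, was scored with an E-score from the Universal PBM Analysis Suite.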

Sequence	PBM E-score
GTCAGGAC	-0.213
AACTAGAA	-0.116
ACGATGCT	-0.042
ACACCGTC	0.424
AGCGCCCG	0.198
CTAGTAGA	0.1
CTTGGGAA	-0.178
CACGGCCC	0.112
AATAGAAC	0.00291
GCGTTGAA	-0.0254
CCGCGCCA	0.228
CAGTTGAC	-0.0313
AATCGCTA	-0.189
CCTAAAGC	-0.0714
TGAACTCA	-0.189
GCCCTGAA	-0.00623
GGGAGTAC	0.115
ATCCATAC	-0.0934
ACCCAACG	0.0646
ATGAAATA	-0.0118
GGGTAGAA	0.00969
ATATGGAC	-0.149
CCCATTCC	-0.156
GCAGGCCC	-0.107
CTTCAACC	-0.0533

Sequence	PBM E-score
AAGATTAG	-0.0223
AAACTCCC	0.104
CCCTGTTC	-0.164
TGGCAGAA	-0.0873
GATCCCCA	0.00367
CGAATCTA	-0.0142
CAACTGGG	-0.174
GAGCACAC	-0.311
ATCTCGCG	-0.0952
GTTGCATA	-0.0825
CTTCCAAG	-0.207
AAGCCATG	-0.148
ATGTTAAC	-0.0161
AGTCTCAG	-0.261
ATCTACTA	-0.126
ACTGTTTA	-0.204
AGCAGCTA	-0.218
GACACCGA	0.442
AACATAAG	0.0593
AACCCACC	0.138
CACTCAGG	-0.126
GATACTTA	-0.0998
CCAATCGA	-0.0932
ACTTTCTC	-0.046
GTCGATCA	-0.181

Sequence	PBM E-score
GGTTTCAA	0.218
GCCCGGTA	0.304
ATTCGTTA	-0.11
AATCTTGA	-0.184
ATTTTCCG	0.18
CGTAAATA	0.0795
ATTGAGCG	0.0357
AATGCATG	-0.156
CGGACTGC	0.217
CAGTTAAC	0.164
GCTGCCCC	-0.126
ACCCATAA	0.159
AGGCATGG	0.0415
AGATCGAG	-0.156
GCCCCCTA	-0.296
AGTGCCTG	-0.17
GGAAGTCA	-0.0172
AGCATGCC	-0.147
CACGCTAA	-0.0171
CGCCCGCA	0.152
AATGCTTA	-0.222
AAACGAGA	0.0382
GGGGTCAA	0.276
ACGGAGCA	0.112
ACTTTACT	-0.0977

Sequence	PBM E-score
CAACTGGC	-0.0884
CCTCCACC	-0.0408
ACGATCAA	-0.224
GCTGACCC	-0.0109
GAGATCGA	-0.0563
GCGGCGAA	0.325
GGGCTTAA	0.391
TAGTAGAA	0.0677
ATTGTAGA	-0.205
ACTTGGTA	-0.121
ATACAGTG	-0.279
GGGGTACC	0.0195
CTGGGGAC	-0.266
AGTTATTC	-0.0473
AAAGACTG	-0.29
GTCGTGCA	-0.103
AAGCCTTA	-0.139
AGGGTAGG	-0.206
AGTGGTTA	-0.171
CCATACGC	-0.287
GGCTCTTA	0.0283
CATATGCG	0.0886
AACCTCAA	-0.181
ATTTACCG	0.332
GTCCGGTA	0.235

Sequence	PBM E-score
CGTATTTC	0.0937
GATTCGAC	-0.237
ATGGATCC	0.166
TCGGAAGA	0.142
ATGGGGTA	0.0556
CGAGGACG	0.109
GTACCAAA	-0.149
GGGTTGTA	0.00458
TGCGCGAA	0.00948
TCCATCGA	-0.123
GGTAGAGA	-0.196
AAATCGCG	-0.0128
TCTACTAA	-0.173
CAATACCA	-0.0726
GCGCGCAC	0.11
CGGTGACG	0.237
CTCATCTC	-0.138
ATAACTAT	-0.141
TACTAATA	-0.0152
GGCATGAC	0.0892
AATGCGTG	-0.247
AATCCGGA	0.248
CGCCTCAA	0.00114
CACTTTTA	0.0184
CGTGTGTA	-0.0759

Sequence	PBM E-score
GTCGAGTA	-0.0695
AACGCGAA	-0.0613
GTTAGACA	-0.0341
AGTGAGTA	-0.235
ACGCCGCC	0.41
GCCTTGAC	0.00816
AAGTAACA	-0.0849
AAAAAGGT	-0.0765
ACTACGAG	-0.124
CCGCTGAA	0.139
CCTGCTCA	-0.271
TATTTGAA	0.0374
CCAACACA	-0.162
ATTGAAGC	-0.05
AATCGCAT	0.00135
AAGGTCTA	-0.0822
ACTCATAC	-0.0801
CTTAGACA	-0.218
CCAGCGGC	0.232
CTAGTAGC	0.00336
CCTTAGCG	0.0261
GCCCAGAA	-0.237
ACAAACGA	-0.0687
TCAGTGGA	-0.115
CCAGCCGG	0.114

Sequence	PBM E-score
TCAAAAAA	-0.0615
AGTGATAG	-0.156
TGCACGAA	-0.0322
ACTGTTAT	-0.0687
AAGTAACT	-0.0859
ATCTGCAT	-0.0951
GCCTCACA	-0.212
CGAGTTGC	-0.202
ATCGACCG	0.0775
CGAGAAGA	-0.0708
CGAAATCA	-0.00127
CTGGGCGA	-0.227
AAGGCGAT	-0.153
ATCGCGAA	0.0839
AATTGAAA	-0.198
TGTAGTAA	0.0797
CATCATTC	-0.235
ATGTGAAG	-0.279
GATAATCA	0.00974
CACTGAGG	-0.0119
ATTCTGAC	-0.0459
CCAGAATC	-0.226
GCTCTAAC	0.12
CAGAAGTA	-0.225
CTCGGCTC	-0.134

Sequence	PBM E-score
GCAGCCAA	-0.121
CATGGGGC	-0.0578
ATGAGTGA	-0.308
AGGTAAGC	-0.0785
TCAACCCA	-0.246
GAGCTAGC	-0.0911
AAGATGAG	-0.235
CCAAGGGG	-0.0613
GATAGTGA	-0.148
CTCGCTAC	-0.246
GAGCCATA	-0.0923
AAACCATA	0.0549
AAGAGCAC	-0.291
CCACGCGA	-0.147
CGTGTCGC	0.189
ACAGTCAG	-0.211
CACCAACC	0.0164
ACAATTAA	0.0893
AGAAGCGA	-0.0959
CAATCAGA	-0.107
CACACTGG	-0.272
AACACTTA	-0.0638
GCGAAAAC	0.0296
CATGGATA	-0.179
AATAACGT	0.00055

Sequence	PBM E-score
ATAACAGG	-0.106
CGGGAGTC	0.0682
CGTTAACA	0.0835
ATTATACC	0.362
TAGCCAAA	0.0668
ATATTGCA	0.0355
CTCTAGTC	-0.0558
TGACCCAA	-0.217
AGTGCATG	-0.113
ATATCGCC	0.344
GCCTTCAA	-0.157
ACTTTCAC	-0.00245
CAACCGTC	-0.0245
CCTAGCGC	-0.00644
AACACACT	-0.219
ACAAAGCT	-0.113
AATAGTAG	-0.00307
GTTTGATA	-0.0162
CGCAATTA	0.313
